Inconclusive results, whose numbers are uncertain, are shown with a selection of clear calls. For some assays here: Potencies of inconclusive entries are doubtful fits and often do not repeat. Active and inactive are the calls of the source. Unless noted, the call rests on the fitted dose curve.
What was measured:
[1] = qHTS assay to identify small molecule antagonists of the vitamin D receptor (VDR) signaling pathway - cell viability counter screen (AID 743225; active means well fitted curve in the direction sought with a large enough effect in the repeat runs; inconclusive means weak or mixed curves; inactive means no such curve, though single readings can be large; an effect the other way counts as inactive or inconclusive; further: potency means the concentration at half of the fitted maximal effect; nearly all actives have a fitted effect of over 50% in size); settings: VDR-bla HEK293T viability, CellTiter-Glo luminescence, 16 h; viability change, negative = cytotoxic: at 61 µM (top of the series) unless noted
Method in brief: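 Same-well multiplex: following 16 h treatment of HEK 293T cells carrying a UAS-driven beta-lactamase reporter with compound and agonist (3 nM final), and a 2 h FRET substrate step, CellTiter-Glo was added and luminescence read after 30 min.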

[2] = qHTS assay to identify small molecule agonists of the endoplasmic reticulum stress response signaling pathway (AID 1159516; active means well fitted activation curve with a large enough effect in the signal ratio in the repeat runs, not every such curve was filed as active; inconclusive means weak or mixed curves, or effect the other way; the % refers to the signal ratio; further: potency means the concentration at half of the fitted maximal effect; on activation: on the % scale 0 is the no-effect control and ±100 the full control effect); settings: ESRE-bla HeLa, ER stress beta-lactamase reporter, 5 h; activation: at 61 µM (top of the series) unless noted
Method in brief: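 ER stress element reporter (bla) in HeLa. 1,500 cells/well, overnight attachment; 5 hr compound; 2 hr RT substrate; dual-emission fluorescence.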

[3] = qHTS assay to identify small molecule agonists of the AP-1 signaling pathway (AID 1159526); settings: ME-180 (cervical carcinoma) AP-1-bla reporter, beta-lactamase FRET ratio, 5 h; activation: at 76.8 µM (top of the series) unless noted; further: potency means the concentration at half of the fitted maximal effect; on activation: on the % scale 0 is the no-effect control and ±100 the full control effect
[4] = target: Retinoic acid receptor RXR-alpha (Homo sapiens) (UniProt P19793); assay: qHTS assay to identify small molecule agonists of the RXR signaling pathway (AID 1159527); settings: HEK293T RXRa-UAS-bla, beta-lactamase ratio, 16 h; activation: at 76.8 µM (top of the series) unless noted; further: nearly all actives have a fitted effect of over 35% in size; further: potency means the concentration at half of the fitted maximal effect; on activation: on the % scale 0 is the no-effect control and ±100 the full control effect
UniProt P19793, sequence (P19793 whole entry, looked up): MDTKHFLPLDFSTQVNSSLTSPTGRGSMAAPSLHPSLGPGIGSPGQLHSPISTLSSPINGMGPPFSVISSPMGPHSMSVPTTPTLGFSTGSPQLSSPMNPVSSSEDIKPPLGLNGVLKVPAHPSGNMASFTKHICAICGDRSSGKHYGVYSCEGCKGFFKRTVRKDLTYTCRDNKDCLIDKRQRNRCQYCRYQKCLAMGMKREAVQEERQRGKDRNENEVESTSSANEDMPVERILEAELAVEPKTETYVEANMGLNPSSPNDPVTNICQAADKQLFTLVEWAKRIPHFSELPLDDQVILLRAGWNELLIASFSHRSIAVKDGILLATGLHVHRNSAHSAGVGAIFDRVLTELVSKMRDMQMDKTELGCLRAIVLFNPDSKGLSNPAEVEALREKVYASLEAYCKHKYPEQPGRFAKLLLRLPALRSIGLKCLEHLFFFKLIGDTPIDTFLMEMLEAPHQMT
Method in brief: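 Compounds in DMSO were added to RXR-alpha-UAS-bla HEK 293T cells kept in 2% charcoal-stripped serum, and incubated 16 hr at 37 C with 5% CO2. Reporter signal came from a 2 hr B/G FRET substrate step.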

[5] = qHTS assay to identify small molecule antagonists of the farnesoid-X-receptor (FXR) signaling pathway - cell viability counter screen (AID 743221; active means well fitted cell-killing curve with a large enough effect in the repeat runs, not every such curve was filed as active; inconclusive means weak or mixed curves, or effect the other way; inactive means no such curve, though single readings can be large or run the other way; further: potency means the concentration at half of the fitted maximal effect; nearly all actives have a fitted effect of over 50% in size); settings: FXR-bla HEK293T viability, CellTiter-Glo luminescence, 16 h; activity change, negative = cytotoxicity: at 62.6 µM (top of the series)
Method in brief: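 Cytotoxicity is taken from ATP luminescence (CellTiter-Glo, 30 min, room temperature) in FXR-bla HEK 293T cells previously incubated 16 h at 37 C with compound and chenodeoxycholic acid at 50 uM final.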

[6] = target: Vitamin D3 receptor (Homo sapiens) (UniProt P11473); assay: qHTS assay to identify small molecule antagonists of the vitamin D receptor (VDR) signaling pathway (AID 743223; active means well fitted inhibition curve with a large enough effect in the signal ratio in the repeat runs, not every such curve was filed as active; inconclusive means weak or mixed curves, or effect the other way; inactive means no such curve, though single readings can be large or run the other way; the % refers to the signal ratio; further: potency means the concentration at half of the fitted maximal effect); settings: VDR-UAS-bla HEK293T, beta-lactamase FRET ratio, 16 h; activity change, negative = inhibition: at 61 µM (top of the series) unless noted
UniProt P11473, sequence (P11473 whole entry, looked up): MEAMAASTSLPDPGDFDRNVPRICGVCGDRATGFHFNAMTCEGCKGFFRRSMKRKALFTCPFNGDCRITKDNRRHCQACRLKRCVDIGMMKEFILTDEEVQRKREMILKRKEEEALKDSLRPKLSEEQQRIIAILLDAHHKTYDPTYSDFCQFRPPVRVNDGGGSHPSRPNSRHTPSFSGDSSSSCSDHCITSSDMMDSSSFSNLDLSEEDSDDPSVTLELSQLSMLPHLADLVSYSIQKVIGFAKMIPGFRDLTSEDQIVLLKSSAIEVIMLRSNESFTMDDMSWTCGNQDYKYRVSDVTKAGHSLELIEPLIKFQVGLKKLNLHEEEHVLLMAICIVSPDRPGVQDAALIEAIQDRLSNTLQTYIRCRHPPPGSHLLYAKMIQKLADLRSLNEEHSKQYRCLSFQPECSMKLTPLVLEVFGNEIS
Method in brief: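 Quantitative HTS in VDR-bla reporter cells stimulated with 1alpha,25-dihydroxyvitamin D3, 3 nM final. Compound exposure 16 h, 37C, 5% CO2. Read-out: beta-lactamase FRET substrate fluorescence, 2 h RT.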

[7] = target: Vitamin D3 receptor (Homo sapiens) (UniProt P11473); assay: qHTS assay to identify small molecule agonists of the vitamin D receptor (VDR) signaling pathway (AID 743222); settings: HEK293T VDR-UAS-bla, beta-lactamase FRET ratio, 16 h; activation: at 63.5 µM (top of the series) unless noted; further: on the % scale 0 is the no-effect control and ±100 the full control effect
Method in brief: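 Agonist activity measured in VDR-bla reporter cells. Exposure 16 h, 37C, 5% CO2; detection by B/G FRET substrate, 2 h RT.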

[8] = qHTS assay to identify small molecule agonists of the farnesoid-X-receptor (FXR) signaling pathway - cell viability counter screen (AID 743218; active means well fitted curve in the direction sought with a large enough effect in the repeat runs; inconclusive means weak or mixed curves; inactive means no such curve, though single readings can be large; an effect the other way counts as inactive or inconclusive; further: on the % scale 0 is the no-effect control and ±100 the full control effect; nearly all actives have a fitted effect of over 45% in size); settings: FXR-bla HEK293T viability, CellTiter-Glo luminescence, 16 h; viability change, negative = cytotoxic: at 62.6 µM (top of the series) unless noted
Method in brief: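 In GeneBLAzer FXR-UAS-bla HEK 293T cells, compounds act for 16 h at 37 C. Cell viability is then scored in the reporter wells by CellTiter-Glo, 30 min at RT, luminescence.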

[9] = qHTS assay to identify small molecule antagonists of the peroxisome proliferator-activated receptor delta (PPARd) signaling pathway - cell viability counter screen (AID 743213; active means well fitted curve in the direction sought with a large enough effect in the repeat runs; inconclusive means weak or mixed curves; inactive means no such curve, though single readings can be large; an effect the other way counts as inactive or inconclusive; further: potency means the concentration at half of the fitted maximal effect; nearly all actives have a fitted effect of over 50% in size); settings: PPARd-bla HEK293H viability, CellTiter-Glo luminescence, 17 h; viability change, negative = cytotoxic: at 62 µM (top of the series) unless noted
Method in brief: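 CellTiter-Glo was added to PPARd-bla HEK293H wells following 17 h compound treatment in the presence of 300 nM L165041. Luminescence was recorded after 30 min at room temperature.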

[10] = qHTS assay to identify small molecule agonists of the RXR signaling pathway - cell viability counter screen (AID 1159529; active means well fitted curve in the direction sought with a large enough effect in the repeat runs; inconclusive means weak or mixed curves; inactive means no such curve, though single readings can be large; an effect the other way counts as inactive or inconclusive; further: on the % scale 0 is the no-effect control and ±100 the full control effect; nearly all actives have a fitted effect of over 50% in size)
Method in brief: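 Counter screen: CellTiter-Glo luminescence. Cells: RXR-alpha-UAS-bla HEK 293T. Medium: 2% charcoal-stripped FBS. Treatment: 16 h, 37 C. Reagent incubation: 30 min, RT.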

[11] = target: Bile acid receptor (Homo sapiens) (UniProt Q96RI1); assay: qHTS assay to identify small molecule agonists of the farnesoid-X-receptor (FXR) signaling pathway (AID 743220; active means well fitted activation curve with a large enough effect in the signal ratio in the repeat runs, not every such curve was filed as active; inconclusive means weak or mixed curves, or effect the other way; the % refers to the signal ratio; further: potency means the concentration at half of the fitted maximal effect); settings: HEK293T FXR-UAS-bla, beta-lactamase FRET ratio, 16 h; activation: at 62.6 µM (top of the series) unless noted
UniProt Q96RI1, sequence (Q96RI1 whole entry, looked up): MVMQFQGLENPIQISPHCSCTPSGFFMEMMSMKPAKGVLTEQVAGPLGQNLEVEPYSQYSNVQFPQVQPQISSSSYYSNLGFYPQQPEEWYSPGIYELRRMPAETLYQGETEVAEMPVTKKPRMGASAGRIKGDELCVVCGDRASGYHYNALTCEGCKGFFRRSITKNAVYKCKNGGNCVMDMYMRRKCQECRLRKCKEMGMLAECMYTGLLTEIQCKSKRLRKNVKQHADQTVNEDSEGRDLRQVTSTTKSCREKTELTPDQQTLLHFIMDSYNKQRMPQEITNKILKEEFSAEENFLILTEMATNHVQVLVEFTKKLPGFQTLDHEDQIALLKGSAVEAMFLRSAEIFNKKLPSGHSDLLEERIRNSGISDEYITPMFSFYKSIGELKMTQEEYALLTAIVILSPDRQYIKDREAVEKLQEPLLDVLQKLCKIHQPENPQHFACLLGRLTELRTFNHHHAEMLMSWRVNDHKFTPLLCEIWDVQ
Method in brief: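 Beta-lactamase reporter under UAS control in GeneBLAzer FXR HEK 293T cells (5000/well) measured with LiveBLAzer FRET substrate after 2 h at room temperature. Compound exposure lasted 16 h at 37C.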
Tags describe the fitted curve by direction and shape or compound fluorescence and quenching.

CCC(C)SSC(C)CC (configuration not stated)
Potency [1]: inconclusive: 0.174 µM [cytotoxic, full curve, poor fit]
Potency [2]: inactive
Potency [3]: inactive

CCCCOC(=O)CCCCC(=O)OCCCC
Potency [2]: inconclusive: 61.6 µM [falling, partial curve, poor fit]
activation [4]: inconclusive: 9.24%

CN(C)C(=O)Nc1ccccc1
Potency [2]: inactive
Potency [4]: inconclusive: 30.9 µM [activator, partial curve, poor fit]

N[C@@H](Cc1cc(I)c(O)c(I)c1)C(=O)O
Potency [2]: inconclusive: 0.213 µM [falling, full curve, poor fit]
Potency [4]: inactive

CC(C(=O)O)c1ccc(C(=O)c2cccs2)cc1 (configuration not stated)
Potency [2]: inconclusive: 0.012 µM [rising, full curve, poor fit]
Potency [4]: inactive

CC1=CC[C@@H]2C[C@H]1C2(C)C
Potency [5]: inconclusive: 0.0435 µM [falling, full curve, poor fit]
activity change, negative = inhibition [6]: inconclusive: 5.65% [at 15.1 µM]
Potency [2]: inconclusive: 3.88 µM [rising, single point]
activation [3]: inactive: 4.37% [at 15.8 µM]

CC1=NC(C)OC1C (configuration not stated)
activation [7]: inconclusive: -2.07%
activity change, negative = inhibition [6]: inconclusive: 13.2%
Potency [2]: inconclusive: 0.0022 µM [rising, full curve, poor fit]
Potency [3]: inconclusive: 34.7 µM [activator, partial curve, poor fit]

CC1=CC[C@@]23C[C@@H]1C(C)(C)[C@@H]2CC[C@H]3C
Potency [8]: inactive
activation [2]: inconclusive: -0.0276%
Potency [3]: inactive

COc1cc(NC(C)CCCN)c2ncccc2c1 (configuration not stated)
Potency [9]: inconclusive: 1.19 µM [cytotoxic, single point]
Potency [2]: inconclusive: 3.38 µM [activator, full curve, poor fit]
activation [4]: inconclusive: -28.6% [at 35.3 µM]
Potency [10]: inactive

CCCCCCCC/C=C/C(=O)O
Potency [2]: inconclusive: 0.268 µM [falling, single point]
activation [4]: inconclusive: 12.6% [at 35.3 µM]

O=C(O)CNC(=O)c1ccccc1I
Potency [11]: inconclusive: 0.075 µM [rising, partial curve, poor fit]
Potency [6]: inconclusive: 0.0849 µM [activator, partial curve, poor fit]
activation [2]: inconclusive: 1.05%
Potency [3]: inactive

Source: PubChem BioAssay (Tox21)
